In PubChem BioAssay AID624417 (National Center for Advancing Translational Sciences (NCATS), 2012):
Hit rate of the full screen: of about 410,000 compounds, about 6,400 (1.6%) were called active. The shares of active, inactive and inconclusive entries below differ from those in the screen. Calls come from the whole dose curve; as a rule, active = well fitted inhibition curve with a large enough effect; inconclusive = small, poorly fitted or top-dose-only effect; inactive = no such curve, though single readings can be large or run the other way. A potency beside an inconclusive call is a rough fit, not a confirmed value.

Target: Glucagon-like peptide 1 receptor (Homo sapiens) (UniProt P43220)
Experiment: qHTS of GLP-1 Receptor Inverse Agonists (Inhibition Mode); note: nearly all actives have a fitted effect of over 55% in size
Conditions: HEK293 GLP-1R CRE-luciferase, luminescence, 24 h, GLP-1R form is constitutively active; series mostly up to 38.3 µM
In short: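 Constitutively active GLP-1R drives a cAMP-responsive luciferase in stably transfected HEK293 cells; test compounds are added after overnight (12 h) attachment and left 24 hr, and signal loss in luminescence marks inhibition.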
Potency is the fitted concentration of half-maximal effect; tags give direction and shape of the fitted curve.

Sequence of UniProt P43220 (P43220 whole entry, looked up): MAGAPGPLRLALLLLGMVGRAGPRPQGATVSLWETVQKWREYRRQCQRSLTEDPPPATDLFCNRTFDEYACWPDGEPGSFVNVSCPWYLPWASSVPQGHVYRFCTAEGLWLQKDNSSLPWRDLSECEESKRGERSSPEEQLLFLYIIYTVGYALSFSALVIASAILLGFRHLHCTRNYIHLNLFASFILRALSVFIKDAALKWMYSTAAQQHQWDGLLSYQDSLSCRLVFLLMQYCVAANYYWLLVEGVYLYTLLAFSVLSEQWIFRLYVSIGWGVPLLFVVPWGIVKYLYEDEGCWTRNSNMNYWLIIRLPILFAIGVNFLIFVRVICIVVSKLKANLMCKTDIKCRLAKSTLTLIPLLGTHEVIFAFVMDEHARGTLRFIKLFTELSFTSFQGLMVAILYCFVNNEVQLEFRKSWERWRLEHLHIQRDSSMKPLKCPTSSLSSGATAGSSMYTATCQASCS

Potency, inconclusive:
COc1cc(NC(=O)c2cnc3c(-c4ccc(F)cc4)c(C)nn3c2C)cc(OC)c1 28.2 µM [inhibitor, single point]
O=C(C1CCC(=O)N(C2CCCC2)C1)N1CCN(c2ccccc2Cl)CC1 (centres undefined) 31.6 µM [inhibitor, single point]
C[C@H](CO)N1C[C@H](C)[C@@H](CN(C)Cc2ccc(Cl)c(Cl)c2)Oc2c(NC(=O)C3CC3)cccc2C1=O 12.6 µM [inhibitor, single point]
OC(c1cccc(Cl)c1)c1nc(-c2cc3ccccc3o2)cs1 (centres undefined) 15.8 µM [inhibitor, single point]
COc1ccccc1CNc1nc(Oc2cccc(F)c2)c2sccc2n1 20 µM [inhibitor, single point]
CCOC(=O)Nc1c(O)ccc2oc(C)c(-c3ccccc3)c12 15.8 µM [inhibitor, partial curve, poor fit]
CC(C)(C)NC(=O)C(c1ccc(C(F)(F)F)cc1)n1c(=O)c(-c2ccco2)nc2ccccc21 (centres undefined) 28.2 µM [inhibitor, single point]
O=C(Nc1nnc(S(=O)(=O)N2CCc3ccccc32)s1)c1ccccc1 15.8 µM [inhibitor, single point]
Cc1ccc(NC(=O)C(OC(=O)c2ccccc2Cl)c2ccccc2)cc1Cl (centres undefined) 11.2 µM [inhibitor, partial curve, poor fit]
O=C(Nc1ccc(SC(F)F)cc1)C12CCC(CC1)C2 11.2 µM [inhibitor, partial curve, poor fit]
CCOC(=O)C(=O)NNc1ccc(Cl)cc1 0.631 µM [inhibitor, full curve, poor fit]
O=C(CSc1ncc(CO)n1Cc1ccccc1)Nc1ccc(C(F)(F)F)cc1 22.4 µM [inhibitor, partial curve, poor fit]
Cc1ccc(S(=O)(=O)N2C3CCCCC3O[C@H]2CC(=O)c2ccc(F)cc2)cc1 (some centres undefined) 28.2 µM [inhibitor, single point]
CC(C)COc1ccc(C(=O)N2CCN(CCc3ccccn3)CC2)cc1 10 µM [inhibitor, partial curve]
CCc1ccc(NC(=O)C(=O)NCC2CCCN2S(=O)(=O)c2ccccc2)cc1 (centres undefined) 28.2 µM [inhibitor, single point]
Cc1cc(C)c(C)c(S(=O)(=O)N2CCN(CC(=O)Nc3sccc3C#N)CC2)c1C 28.2 µM [inhibitor, single point]
CC(C(=O)N1CCCC1)N1CCN(S(=O)(=O)c2ccc(C(C)(C)C)cc2)CC1 (centres undefined) 3.98 µM [inhibitor, partial curve]
COc1ccc(OCc2cccc(C(=O)Nc3ccc(CN4CCCCC4)cc3)c2)cc1 3.98 µM [inhibitor, single point]
Fc1ccc(-c2ccc(CNCCSc3nnnn3-c3ccccc3)o2)cc1Cl 14.1 µM [inhibitor, single point]
CCCN1C(=O)c2cc(C(=O)Nc3ccccc3OC)ccc2C1Nc1ccccc1OC (centres undefined) 10 µM [inhibitor, partial curve, poor fit]
CCOC(=O)c1sc(Nc2ccc(Br)cc2)nc1C 12.6 µM [inhibitor, single point]
O=C(Cn1cc(C(=O)C2CCCCC2)c2ccccc21)NCC1CCCO1 (centres undefined) 10 µM [inhibitor, partial curve, poor fit]
CC(C)(C)c1ccc(C(=O)C2CCCN(C(=O)c3ccccn3)C2)cc1 (centres undefined) 5.62 µM [inhibitor, full curve, poor fit]
Cc1ccc(OCCNC(=O)/C=C/c2ccccc2)cc1 28.2 µM [inhibitor, single point]
Cn1c(SCC(=O)N2CCOCC2)nc2cccnc21 28.2 µM [inhibitor, single point]
OCCCNc1ncnc2c1cnn2-c1ccc(Cl)cc1 11.2 µM [inhibitor, partial curve, poor fit]
Cc1ccc(NC(=O)NNC(=O)C2CCN(Cc3ccc(F)cc3Cl)CC2)cc1 3.16 µM [inhibitor, partial curve, poor fit]
CCCOc1ccc(CN(C(=O)c2nc(SC(C)C)ncc2Cl)C2CCS(=O)(=O)C2)cc1 (centres undefined) 11.2 µM [inhibitor, partial curve, poor fit]
CC(NC(=O)CSc1nnc(COc2ccccc2)o1)c1ccccc1 (centres undefined) 20 µM [inhibitor, partial curve, poor fit]
O=[N+]([O-])c1ccc(NC(c2ccccc2)c2ccc3cccnc3c2O)cc1 (centres undefined) 2.24 µM [inhibitor, partial curve, poor fit]
CCN1CCN(c2sc(S(C)(=O)=O)nc2S(=O)(=O)c2ccc(Cl)cc2)CC1 11.2 µM [inhibitor, partial curve, poor fit]
Cc1cccc(C2c3[nH]c4ccccc4c3CCN2C(=O)c2cc3c([nH]c2=O)CCCC3)n1 (centres undefined) 10 µM [inhibitor, partial curve]
CC(C)c1nc(NCCO)c(C#N)c2c1CCCC2 12.6 µM [inhibitor, single point]
Cc1ccc(SCCNC(=O)c2ccc(C)c([N+](=O)[O-])c2)cc1 28.2 µM [inhibitor, single point]
CCOc1ccc(Br)cc1CSC(=N)N 10 µM [inhibitor, single point]
CC(=O)CSc1ccc(-c2nc3ccccc3[nH]2)cn1 10 µM [inhibitor, single point]
COc1ccc(-c2csc3ncn(Cc4ccccc4)c(=O)c23)cc1 28.2 µM [inhibitor, single point]
Cc1c(Nc2cc(Cl)c3nonc3c2[N+](=O)[O-])c(=O)n(-c2ccccc2)n1C 8.91 µM [inhibitor, partial curve, poor fit]
CC(C)(C)C(=O)Nc1ccc(C(=O)N/N=C/c2ccccc2OC(=O)c2ccc(Cl)cc2)cc1 12.6 µM [inhibitor, partial curve, poor fit]
CCOc1ccc(CNC(=S)Nc2ccccc2)cc1Cl 12.6 µM [inhibitor, single point]
CN(c1ccccc1C(=O)Nc1cccc(Br)c1)S(=O)(=O)c1ccccc1 12.6 µM [inhibitor, partial curve, poor fit]
O=C(NCc1ccccc1)C1=C[C@@H](c2csc3ccccc23)C[C@@H](OCCCCO)O1 7.08 µM [inhibitor, partial curve, poor fit]
COC(=O)C1=C(C)NC(=O)CC1c1cccc(Cl)c1Cl (centres undefined) 31.6 µM [inhibitor, single point]
Nc1ccccc1Sc1nc2ccccc2[nH]1 28.2 µM [inhibitor, single point]
COc1ccc(C(CNC(=O)C(C)Oc2ccc(Br)cc2)N2CCCC2)cc1 (centres undefined) 12.6 µM [inhibitor, partial curve, poor fit]
Cc1ccc(S(=O)(=O)c2nc(-c3ccco3)oc2SCc2ccccc2Cl)cc1 11.2 µM [inhibitor, partial curve]
Cc1ccc(NC(=S)N2CCC(c3ccccc3)C2)c(Cl)c1 (centres undefined) 8.91 µM [inhibitor, partial curve, poor fit]

Potency, active:
Cc1ccc(NC2=Nc3ccccc3CS2)cc1 6.31 µM
CN(c1ccccc1)S(=O)(=O)c1cccc(C(=O)NCCc2c[nH]c3ccccc23)c1 8.91 µM
CCN1c2cc(C)ccc2-n2cccc2C12CCN(C(=O)Nc1cc(OC)c(OC)c(OC)c1)CC2 11.2 µM

Potency, inactive:
Cc1ccc(Sc2c(C(=O)NCc3ccccc3C)[nH]c3ccccc23)cc1
N/C(=N\OC(=O)CCC1CCCC1)c1cccnc1
COc1cccc(C2c3c(-c4ccccc4O)n[nH]c3C(=O)N2CCc2ccc(OC)c(OC)c2)c1 (centres undefined)
CCN(CC)CCOC(=O)c1ccc(N/C=C(/C#N)c2nc(-c3ccc4c(c3)OCO4)cs2)cc1
CCOC(=O)c1c(NC(=O)COc2cccc(C(F)(F)F)c2)sc2c1CCCCC2
O=C1c2cccc3c([N+](=O)[O-])ccc(c23)C(=O)N1c1ccc(Cl)cn1
COC(=O)C(Cc1c[nH]c2ccccc12)NC(=O)CCNC(=O)c1ccco1 (centres undefined)
NS(=O)(=O)c1cccc(NC(=O)CC(NC(=O)c2ccccc2Cl)c2ccccc2)c1 (centres undefined)
Cc1ccc2oc3c(c(=O)c2c1)C(c1cccc(O)c1)N(Cc1ccccc1Cl)C3=O (centres undefined)
N#C/C(=C\c1ccc(-c2ccc([N+](=O)[O-])cc2)o1)C(=O)Nc1nc(-c2cccs2)cs1
CCN(CC(=O)Nc1ccc(NC(C)=O)cc1)C(=O)C1CC(=O)N(c2ccc3c(c2)OCCO3)C1 (centres undefined)
CCCCNC(=O)CC1N=C2c3ccccc3N=C(SCC(=O)Nc3ccccc3C)N2C1=O (centres undefined)
NNC(=O)c1ccc([N+](=O)[O-])c(CS(=O)(=O)c2ccc(Cl)cc2)c1
O=C(CSc1ccc(Cl)cc1)N1CCN(c2ncc(C(F)(F)F)cc2Cl)CC1
